According to PubChem BioAssay AID1347165 (National Center for Advancing Translational Sciences (NCATS), 2019):
Screen size: about 220,000 compounds; about 5,700 (2.6%) were called active. This list was built around the results that the source calls inconclusive (neither active nor inactive); the mix of calls is not that of the screen. The call rests on the fitted dose curve; in most records, active means well fitted inhibition curve with a large enough effect; inconclusive means small, poorly fitted or top-dose-only effect; inactive means no such curve, though single readings can be large or run the other way. A potency beside an inconclusive call is a rough fit, not a confirmed value.
Further: nearly all actives have a fitted effect of over 70% in size.
Potency means the concentration at half of the fitted maximal effect; tags describe the fitted curve by direction and shape.
Wherever activity change, negative = inhibition is given: 0% is about no effect.

The molecules below were run against Lysine-specific demethylase 5B (Homo sapiens) (UniProt Q9UGL1) (assay: Primary screen for KDM5B Histone Demethylases FDH-coupled qHTS). Details: FDH-coupled NADH fluorescence (FDH is formaldehyde dehydrogenase); activity change, negative = inhibition: at 57.7 µM (top of the series) unless noted.
Chain of UniProt Q9UGL1 (Q9UGL1 whole entry, looked up): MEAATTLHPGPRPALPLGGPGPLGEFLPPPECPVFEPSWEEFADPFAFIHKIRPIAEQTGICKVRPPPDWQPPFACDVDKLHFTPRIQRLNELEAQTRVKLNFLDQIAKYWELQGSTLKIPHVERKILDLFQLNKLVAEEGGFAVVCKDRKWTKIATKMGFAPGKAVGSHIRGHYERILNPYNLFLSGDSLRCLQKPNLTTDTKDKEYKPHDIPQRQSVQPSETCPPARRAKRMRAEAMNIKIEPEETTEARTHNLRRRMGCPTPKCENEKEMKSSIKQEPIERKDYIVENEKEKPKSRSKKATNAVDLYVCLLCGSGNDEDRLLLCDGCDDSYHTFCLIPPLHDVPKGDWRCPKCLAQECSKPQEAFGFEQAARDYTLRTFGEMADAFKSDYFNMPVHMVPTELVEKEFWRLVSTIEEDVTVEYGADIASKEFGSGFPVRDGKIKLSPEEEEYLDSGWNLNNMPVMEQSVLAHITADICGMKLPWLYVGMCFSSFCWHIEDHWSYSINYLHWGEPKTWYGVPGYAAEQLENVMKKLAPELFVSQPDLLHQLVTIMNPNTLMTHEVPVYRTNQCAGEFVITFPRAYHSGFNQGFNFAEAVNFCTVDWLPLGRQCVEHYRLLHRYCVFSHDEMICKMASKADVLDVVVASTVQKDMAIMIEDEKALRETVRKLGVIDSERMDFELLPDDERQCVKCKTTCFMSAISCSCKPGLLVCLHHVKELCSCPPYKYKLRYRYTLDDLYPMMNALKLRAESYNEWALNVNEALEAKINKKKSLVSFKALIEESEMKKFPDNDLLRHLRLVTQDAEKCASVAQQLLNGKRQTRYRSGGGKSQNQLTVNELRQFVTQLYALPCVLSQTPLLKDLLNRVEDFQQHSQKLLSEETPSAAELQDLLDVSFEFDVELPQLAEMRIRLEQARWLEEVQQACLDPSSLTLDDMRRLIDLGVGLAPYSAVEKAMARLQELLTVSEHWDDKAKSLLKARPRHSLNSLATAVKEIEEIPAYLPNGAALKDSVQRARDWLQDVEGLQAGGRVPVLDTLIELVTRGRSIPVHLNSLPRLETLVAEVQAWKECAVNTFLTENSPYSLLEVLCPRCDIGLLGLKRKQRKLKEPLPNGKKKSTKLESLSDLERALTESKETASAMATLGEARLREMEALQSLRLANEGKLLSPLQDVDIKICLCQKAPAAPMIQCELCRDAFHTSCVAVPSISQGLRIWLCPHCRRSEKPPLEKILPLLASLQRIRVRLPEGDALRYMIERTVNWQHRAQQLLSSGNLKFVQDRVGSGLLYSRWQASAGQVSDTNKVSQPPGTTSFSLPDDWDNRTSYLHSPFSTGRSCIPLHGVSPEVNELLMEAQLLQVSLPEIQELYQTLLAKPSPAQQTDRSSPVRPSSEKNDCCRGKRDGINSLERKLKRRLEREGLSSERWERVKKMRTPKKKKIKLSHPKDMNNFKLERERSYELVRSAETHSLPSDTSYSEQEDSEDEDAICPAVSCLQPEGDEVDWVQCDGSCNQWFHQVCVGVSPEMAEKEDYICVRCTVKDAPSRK
In short: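 KDM5BΔAP (200 nM final) in 50 mM HEPES pH 7.5, 0.01% Tween-20 was preincubated 10 min at RT with compound over a concentration range. Substrate mix (H3K4me3 12.5 µM, α-KG 25 µM, Fe²⁺, ascorbate, NAD⁺, FDH) was added, and NADH fluorescence change over 30 min gave dose-response curves.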
In the case of Cn1ncc2c(C(=O)NCc3cccnc3)cc(-c3ccc(Cl)cc3Cl)nc21, the Potency is reported as active: 79.4 µM. Cc1ccc(Cn2c(N3CCC(C(=O)N4CCC(C(N)=O)CC4)CC3)nc3ccccc32)cc1 was tested, and the “activity change, negative = inhibition” value was inactive: 13.8%. In the case of Cc1cccc(NC(=O)C2CCN(S(=O)(=O)c3c(C)noc3/C=C/c3ccco3)CC2)c1C, the activity change, negative = inhibition is reported as inconclusive: -38.8% [inhibitor]. With O=C(O)c1nnn(-c2ccc(F)cc2)c1C(F)(F)F the “activity change, negative = inhibition” value was inactive: 24.5%. In the case of CC(C)c1ccc(CN2CC[C@@H]3OCC(=O)N(Cc4ccccc4)[C@H]3CC2)cc1, the Potency is reported as inconclusive: 44.7 µM [inhibitor, partial curve, poor fit]. In the case of O=C1CSc2ccc(S(=O)(=O)Nc3cccc(Cl)c3Cl)cc2N1, the “activity change, negative = inhibition” value is reported as inactive: -6.56%. In the case of O=C(NCCn1cccc1-c1nc(-c2ccc3c(c2)OCO3)no1)c1ccc(Cl)cc1, the Potency is reported as inconclusive: 35.5 µM [inhibitor, single point]. With CC(NCC(=O)NC1(C#N)CCCCCC1)c1ccc(Cl)cc1Cl (centres undefined) the “activity change, negative = inhibition” value was inactive: -4.51%. With COc1ccc(CCc2nc3nccc(-c4ccc(OC)c(OC)c4)n3n2)cc1 the Potency was active: 28.2 µM. With Cc1cc(C)cc(NC(=O)CN(c2cccc(C)c2C)S(=O)(=O)c2ccccc2)c1 the Potency was inconclusive: 17.8 µM [inhibitor, partial curve, poor fit]. For Cc1ccc(C2Cn3nnc(C(=O)N4CCN(C(=O)c5cccc(N(C)C)c5)CC4)c3CO2)cc1 (centres undefined), the “activity change, negative = inhibition” value was inactive: -12.1%. In the case of COc1ccc(NC(=O)O[C@@H]2CO[C@H]3[C@@H]2OC[C@@H]3NC(=S)Nc2cccc3ccccc23)cc1, the Potency is reported as inconclusive: 22.4 µM [inhibitor, partial curve]. In the case of CSc1cccc(NC(=O)N2CCN(S(=O)(=O)c3ccc4c(ccn4C)c3)CC2)c1, the Potency is reported as inconclusive: 2.24 µM [inhibitor, full curve, poor fit]. CC1CCC(NC(=O)C2CCN(C(=O)c3ncn4c3COC(c3ccc(F)cc3)C4)CC2)CC1 (centres undefined) was tested, and the “activity change, negative = inhibition” value was inactive: 7.26%. With CCOc1ccc2c(n1)CCN(C(=O)c1ccco1)C2 the Potency was inconclusive: 28.2 µM [inhibitor, partial curve, poor fit]. For COc1ccc(S(=O)(=O)NCCc2noc(-c3ccncc3)n2)cc1, the “activity change, negative = inhibition” value was inactive: 13.7%. For Clc1cccc(CSc2nc3ncccc3[nH]2)c1, the “activity change, negative = inhibition” value was inactive: 5.99%. With O[C@@H]1C[C@@H](c2nc(-c3ccc(F)cc3)no2)N(Cc2cc3ccccc3o2)C1 the Potency was inconclusive: 31.6 µM [inhibitor, partial curve]. In the case of CC(=O)c1ccc(S(=O)(=O)N2CCN(C(=O)CN3CCC(C)CC3)CC2)cc1, the “activity change, negative = inhibition” value is reported as inactive: -9.36%. For COc1ccccc1C1NC(=S)NC2=C1CCc1ccccc12 (centres undefined), the Potency was inconclusive: 44.7 µM [inhibitor, partial curve, poor fit]. In the case of COC(=O)CNC(=O)c1nc(-c2ccccc2OC)c2ccccn12, the Potency is reported as active: 89.1 µM. In the case of O/N=C1\CCCc2c1nc(-c1ccccc1)n2O, the Potency is reported as inconclusive: 31.6 µM [inhibitor, partial curve, poor fit]. In the case of COC(=O)CNC(=O)c1cc(-c2cccc(C(F)(F)F)c2)c2nncn2n1, the Potency is reported as active: 79.4 µM. With COc1cccc(CNC(=O)c2ccc3c(c2)sc2nc(-c4ccccc4)cn23)c1OC the Potency was inconclusive: 3.98 µM [inhibitor, full curve, poor fit]. With O=C(Cc1ccccc1F)N1CCC2(CC1)CN(C1CCC1)CC2CO (centres undefined) the “activity change, negative = inhibition” value was inactive: -14.1%. In the case of CC[C@@H]1[C@@H](NC(=O)CSCc2ccccc2Cl)[C@@H]2CCO[C@H]12, the “activity change, negative = inhibition” value is reported as inactive: 41.2%. In the case of COCc1nnc2n1CCC(NC(=O)C1(c3ccc(OC)cc3)CC1)CC2 (centres undefined), the “activity change, negative = inhibition” value is reported as inactive: 2.46%. For COc1cccc(/C=C/C(=O)NCc2ccccc2)c1, the Potency was inconclusive: 28.2 µM [inhibitor, partial curve, poor fit]. With CCOc1ccccc1CNC(=O)c1cc2oc3ccccc3c2n1CC the Potency was inconclusive: 31.6 µM [inhibitor, partial curve, poor fit]. Cc1nnc2ccc(SCC(=O)Nc3c(F)cccc3F)nn12 was tested, and the Potency was inconclusive: 25.1 µM [inhibitor, single point]. In the case of CCOCCOC(C)C(=O)NCC(CC)c1ccccc1 (centres undefined), the “activity change, negative = inhibition” value is reported as inactive: 17%. O=C(c1cnc(N2CCCCC2)c2ccccc12)N1CCN(c2ccc(F)cc2)CC1 was tested, and the Potency was inconclusive: 35.5 µM [inhibitor, partial curve, poor fit]. For COc1cccc(C(=O)Nc2ccc3nc(SCC(=O)N4CCc5ccccc54)sc3c2)c1, the Potency was inconclusive: 25.1 µM [inhibitor, partial curve, poor fit]. In the case of COc1ccc2nc([C@H]3CCN(Cc4cccc(C#N)c4)C3)[nH]c2c1, the Potency is reported as inconclusive: 25.1 µM [inhibitor, partial curve, poor fit]. With COc1cc(NC(=O)CCCN2C(=O)CCn3nc(-c4cn(C)c5ccccc45)cc32)cc(OC)c1 the Potency was inconclusive: 39.8 µM [inhibitor, single point]. For Cc1ccccc1NC(=O)N1CCC(N2CCCC(C(=O)N3CCCC3)C2)CC1 (centres undefined), the Potency was active: 22.4 µM. With C=CCNC(=O)c1ccc(-c2nnc3ccc(NC(=O)C4CCC4)cn23)cc1 the Potency was active: 22.4 µM. In the case of CSc1nc(C)cc(Nc2cccc(C(=O)O)c2)n1, the Potency is reported as inconclusive: 28.2 µM [inhibitor, single point]. For CN1CCN(CCNC(=O)c2ccc3nc(-c4ccc(F)cc4)c(-c4ccc(F)cc4)nc3c2)CC1, the Potency was inconclusive: 28.2 µM [inhibitor, partial curve, poor fit]. Cc1nn(-c2ccccc2[N+](=O)[O-])c(C)c1[C@@H]1C=C[C@@H](NCc2ccco2)C1 was tested, and the Potency was inconclusive: 39.8 µM [inhibitor, partial curve, poor fit]. For Cc1ccc(-n2cc(C(=O)N3CCc4ccccc4C3)nn2)cc1, the “activity change, negative = inhibition” value was inactive: 9.57%. NC(=O)c1cccnc1OC1CCN(Cc2ccc[nH]2)CC1 was tested, and the Potency was inconclusive: 14.1 µM [inhibitor, partial curve, poor fit]. With CN(C)CCOC(=O)c1ccc2[nH]c3c(c2c1)CSCC3 the Potency was inconclusive: 28.2 µM [inhibitor, single point]. With CN(C)c1ccc(C(=O)NCc2nnc3cc(-c4nc(C5CC5)no4)ccn23)cc1 the “activity change, negative = inhibition” value was inactive: 14.7%.
